Article PMC10668032
This is one part of the list. At the low end of the ranking the order means little.

Molecular target: SIX1-Q177R homeodomain (UniProt Q15475)
Assay: universal protein binding microarray
Settings: Universal all-10-mer PBM (8x60K, AMADID 030236), 300 nM GST-tagged protein, Alexa Fluor 488 anti-GST; buffer, salt, pH and temperature not stated; high values mean tight binding; most listed sequences are background and not binding sites; double strand, one strand shown

Row | Sequence | binding signal
1 | GCCGTGCC | -0.121 E-score
2 | AATGTTTG | -0.139 E-score
3 | TCATCTAA | -0.207 E-score
4 | ACATCATA | -0.111 E-score
5 | CCGTAAAG | 0.0924 E-score
6 | AGCTATCA | -0.128 E-score
7 | AAGCGTCT | 0.0128 E-score
8 | GACTGACC | -0.0752 E-score
9 | ATCAGGCC | -0.106 E-score
10 | TCACGCGA | -0.0622 E-score
11 | CACGAATA | 0.0166 E-score
12 | ACGCTCGC | 0.0296 E-score
13 | ACGTGATG | 0.0525 E-score
14 | CGGTAGAA | -0.0834 E-score
15 | AGAACCAA | -0.249 E-score
16 | ATGCGGTA | 0.0262 E-score
17 | ACAATAGA | -0.116 E-score
18 | CGCGAATA | 0.0507 E-score
19 | AACGTGCA | -0.0942 E-score
20 | CGCCTCTC | -0.102 E-score
21 | CTAGAGTA | -0.0372 E-score
22 | GTCTGACA | 0.206 E-score
23 | GTGGTACA | 0.122 E-score
24 | ACAGTTAT | -0.138 E-score
25 | CAAGTGTG | 0.131 E-score

Row | Sequence | binding signal
26 | CCGGCGTA | 0.0832 E-score
27 | AGCGTCCG | 0.11 E-score
28 | CGTTACTC | 0.002 E-score
29 | CGCCGCGA | 0.0151 E-score
30 | GAAGTACC | 0.0327 E-score
31 | CCCCTCAA | 0.161 E-score
32 | CCAGACAC | 0.37 E-score
33 | GCACACGA | 0.214 E-score
34 | CCCTTTAA | 0.138 E-score
35 | CAGTGGAG | 0.0257 E-score
36 | AACATGTT | -0.352 E-score
37 | CAGGTACC | 0.0178 E-score
38 | GAGCTCCA | -0.275 E-score
39 | AAAAGCCA | -0.259 E-score
40 | CTTTACGA | -0.188 E-score
41 | GGCGAGCA | -0.0485 E-score
42 | CTAGGGTC | 0.0399 E-score
43 | CACCCGGC | 0.36 E-score
44 | CACCGTTA | 0.24 E-score
45 | CCATATCA | -0.0222 E-score
46 | ACATCCTC | 0.042 E-score
47 | ACCTTAGA | -0.015 E-score
48 | AATAGCCA | -0.185 E-score
49 | CCGCGCTC | 0.0188 E-score
50 | TGACTTAA | -0.157 E-score

Row | Sequence | binding signal
51 | CAAAACGG | -0.113 E-score
52 | ACCTTGCC | 0.0455 E-score
53 | GGGCGGGA | 0.0298 E-score
54 | CTATATAG | 0.0157 E-score
55 | GTGTAACA | 0.445 E-score
56 | ACGGGCCA | -0.0699 E-score
57 | CAGGAGTC | 0.142 E-score
58 | AAGCACCT | 0.0486 E-score
59 | CCAAAATC | 0.0242 E-score
60 | GACGCGTA | 0.0154 E-score
61 | AATCTCAA | -0.123 E-score
62 | ATTTATCG | -0.0438 E-score
63 | AATGGGCC | -0.19 E-score
64 | GATGAATA | -0.0402 E-score
65 | CCGTCCGA | -0.17 E-score
66 | CACAATGG | 0.061 E-score
67 | CGCTAGCG | -0.223 E-score
68 | ATATGCTA | -0.189 E-score
69 | ATCATCTG | 0.0713 E-score
70 | CGCTCGCA | -0.0199 E-score
71 | GACACAAA | 0.224 E-score
72 | CTCGTCCA | -0.253 E-score
73 | ACTCGAAA | -0.161 E-score
74 | TAGTTTAA | 0.0641 E-score
75 | ACTGCCCC | -0.0883 E-score

Row | Sequence | binding signal
76 | CATTCTGC | -0.295 E-score
77 | CTTGCTCC | -0.258 E-score
78 | GATTACAA | -0.222 E-score
79 | CTGGGGTA | 0.194 E-score
80 | AGAGCCCT | -0.11 E-score
81 | CACGGTCG | 0.109 E-score
82 | ATGTAGCG | -0.225 E-score
83 | CACGAGTC | 0.237 E-score
84 | CTGTCTAC | -0.2 E-score
85 | CGTACGCA | 0.0917 E-score
86 | CCTTTCTC | -0.208 E-score
87 | GAAAGGGA | -0.14 E-score
88 | CCCACATC | -0.152 E-score
89 | AAATATGA | 0.00306 E-score
90 | AGCGAGCA | -0.142 E-score
91 | CTAGTAAA | -0.0855 E-score
92 | AACCTTCT | -0.0835 E-score
93 | CCCTTTGA | 0.0135 E-score
94 | CACGAAAG | 0.16 E-score
95 | GCGTGCTA | 0.151 E-score
96 | GGGACAGA | -0.0712 E-score
97 | ATCGGGTC | 0.118 E-score
98 | AGGAGATG | -0.0488 E-score
99 | CCTTGGGA | -0.0162 E-score
100 | ATATGACA | 0.092 E-score

Row | Sequence | binding signal
101 | AAGGCGTA | 0.0219 E-score
102 | GACCTCCA | -0.224 E-score
103 | ACTTCATC | -0.162 E-score
104 | TCCACCCA | -0.0413 E-score
105 | CCTTTTTC | -0.233 E-score
106 | CAGTCGAA | -0.189 E-score
107 | ACGAGGTA | -0.058 E-score
108 | GATATATC | -0.0568 E-score
109 | GTTTGTAA | -0.0562 E-score
110 | AACCGCCT | -0.107 E-score
111 | GTGCAGAA | -0.00213 E-score
112 | ATACTGAA | -0.0682 E-score
113 | GAATGCCA | -0.277 E-score
114 | GGTTACTA | -0.0459 E-score
115 | ATATCTCA | -0.037 E-score
116 | AAGTAAGG | 0.0669 E-score
117 | GAACCAGA | -0.223 E-score
118 | GGACGCTA | 0.017 E-score
119 | CCTATAAG | 0.0586 E-score
120 | GGTTACCA | -0.137 E-score
121 | TGACTGAA | -0.145 E-score
122 | GGCCCGAA | -0.0868 E-score
123 | GTACGTAC | 0.0316 E-score
124 | CAAACCTA | -0.173 E-score
125 | CCCACGGA | 0.161 E-score

Row | Sequence | binding signal
126 | CGGGAAAG | -0.125 E-score
127 | GGCCATCA | -0.131 E-score
128 | ATCCGTGA | 0.0106 E-score
129 | GCCTAAAC | -0.0818 E-score
130 | GATAATCC | 0.0206 E-score
131 | CCCGTTCA | -0.0143 E-score
132 | AGAGGGAT | 0.0015 E-score
133 | AGAAGTGA | 0.0607 E-score
134 | CGCTACCG | -0.0582 E-score
135 | AAGAGCCT | -0.187 E-score
136 | ACTGTTGC | -0.0885 E-score
137 | AGTGCGGA | 0.161 E-score
138 | ACCAATGA | -0.0267 E-score
139 | CTGACAGC | -0.15 E-score
140 | AAATGCTC | -0.321 E-score
141 | AAGGTAGG | 0.0049 E-score
142 | AGCGGACC | -0.228 E-score
143 | CGGCCCAG | -0.124 E-score
144 | AATCACGC | -0.0813 E-score
145 | CGGGTTGC | -0.0298 E-score
146 | AGGGTACC | 0.106 E-score
147 | CTCACTGC | -0.175 E-score
148 | CTCGAGGC | 0.0234 E-score
149 | CATGTAGC | -0.118 E-score
150 | CTGTCAAC | -0.0733 E-score

Row | Sequence | binding signal
151 | CTAATATC | -0.0841 E-score
152 | CGCACCTC | 0.074 E-score
153 | CGGCCTCC | -0.109 E-score
154 | CCCGTGGC | 0.0777 E-score
155 | CCTACCCG | 0.183 E-score
156 | TACCCTCA | 0.153 E-score
157 | AGTGATGA | 0.022 E-score
158 | AAGGGATT | -0.169 E-score
159 | ATGAAATC | -0.0546 E-score
160 | ATTTCCCC | -0.213 E-score
161 | ATCTCAAT | -0.258 E-score
162 | AGAACTGC | -0.0404 E-score
163 | CCAGGCCC | -0.144 E-score
164 | CCAACATC | -0.0552 E-score
165 | GATAGACC | -0.0537 E-score
166 | AATTTGGT | -0.123 E-score
167 | CGATATTC | -0.128 E-score
168 | CGATTCGA | -0.0415 E-score
169 | ATCTAGAA | -0.116 E-score
170 | ACAATTAC | -0.065 E-score
171 | TATTGAAA | -0.124 E-score
172 | TATGGGAA | 0.00536 E-score
173 | CAGGGGTC | 0.242 E-score
174 | GGTTTACA | 0.16 E-score
175 | ACCACATA | 0.0781 E-score

Row | Sequence | binding signal
176 | ATCGCAAG | -0.118 E-score
177 | ACAAGGCC | -0.11 E-score
178 | CTTGGACA | 0.0848 E-score
179 | ACGTAGCC | -0.0518 E-score
180 | ACCAGCAC | 0.206 E-score
181 | TAGCGTCA | 0.122 E-score
182 | AAGGTTGT | -0.145 E-score
183 | AAGTACGC | -0.0304 E-score
184 | TAGATTGA | -0.102 E-score
185 | GAGGCAGA | -0.14 E-score
186 | CAATCTAA | -0.2 E-score
187 | TCGTGCCA | -0.0599 E-score
188 | ACTGTACA | 0.223 E-score
189 | GTCTCAAC | -0.0228 E-score
190 | GCCTCCCA | -0.122 E-score
191 | AGGCGGTG | 0.28 E-score
192 | ACTTGTGA | 0.0998 E-score
193 | ACCGTAGT | -0.0171 E-score
194 | AGCACATC | -0.264 E-score
195 | AGACTGGG | -0.132 E-score
196 | ACCCCAAT | 0.266 E-score
197 | TAGGTAAA | -0.0362 E-score
198 | ACGACGCC | 0.101 E-score
199 | GCTTATTA | 0.00272 E-score
200 | AACGCTTA | -0.0439 E-score

Row | Sequence | binding signal
201 | ACTGACGG | -0.00298 E-score
202 | GACGGATA | 0.15 E-score
203 | CCAGTCAA | -0.0509 E-score
204 | AATTGCCA | -0.112 E-score
205 | CTGATTGA | -0.153 E-score
206 | CTTTCACC | -0.184 E-score
207 | CTACTGAA | -0.17 E-score
208 | CGCCTTAG | 0.0237 E-score
209 | ATTGTCGA | -0.0563 E-score
210 | CTCGTTTC | -0.192 E-score
211 | CAAAAGGA | -0.0462 E-score
212 | CCTAAAAC | -0.0695 E-score
213 | AAAGTACG | -0.127 E-score
214 | TGCTGCAA | 0.0295 E-score
215 | GATACAAC | 0.0689 E-score
216 | ACGTTAGT | -0.0661 E-score
217 | ACGTTAGG | -0.00652 E-score
218 | CTCGAGAG | -0.00792 E-score
219 | ACGATTAT | -0.138 E-score
